In the supplement of paper PMC8728848:
This is one part of the list.

Experiments:
Test in all cases: glycan array binding signal (z-score within array); higher = stronger binding
Details in all cases: glycan notation: IUPAC condensed, linker removed
[1] = target: Gal(b1-4)GlcNAc(b1-2)[Gal(b1-4)GlcNAc(b1-6)]Man(a1-6)[GlcNAc(b1-4)][Gal(b1-4)GlcNAc(b1-2)Man(a1-3)]Man(b1-4)GlcNAc(b1-4)GlcNAc
Outline: (§1)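 Glycan array data came from 3228 arrays in the Consortium for Functional Glycomics database, and only arrays with an available protein sequence were kept. Glycan names were put into IUPAC-condensed notation, and columns mapping to the same glycan were averaged. The binding signal is a within-array Z-score, averaged across arrays of one protein sequence run at different concentrations or buffers and across linkers. A negative Z-score can be read as non-binding.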

[2] = target: Gal(b1-4)GlcNAc(b1-2)[Gal(b1-4)GlcNAc(b1-6)]Man(a1-6)[GlcNAc(b1-4)][Gal(b1-4)GlcNAc(b1-2)[Gal(b1-4)GlcNAc(b1-4)]Man(a1-3)]Man(b1-4)GlcNAc(b1-4)[Fuc(a1-6)]GlcNAc
Outline: as §1

[3] = target: Gal(b1-4)GlcNAc(b1-3)Gal(b1-3)GalNAc
Outline: as §1

[4] = target: Gal(b1-4)GlcNAc(b1-3)Gal(b1-3)GlcNAc
Outline: as §1

[5] = target: Gal(b1-4)GlcNAc(b1-3)Gal(b1-4)Glc
Outline: as §1

[6] = target: Gal(b1-4)GlcNAc(b1-3)Gal(b1-4)GlcNAc
Outline: as §1

[7] = target: Gal(b1-4)GlcNAc(b1-3)Gal(b1-4)GlcNAc(b1-2)Man(a1-3)[Gal(b1-4)GlcNAc(b1-3)Gal(b1-4)GlcNAc(b1-2)Man(a1-6)]Man(b1-4)GlcNAc(b1-4)GlcNAc
Outline: as §1

[8] = target: Gal(b1-4)GlcNAc(b1-3)Gal(b1-4)GlcNAc(b1-2)Man(a1-3)[Gal(b1-4)GlcNAc(b1-3)Gal(b1-4)GlcNAc(b1-2)Man(a1-6)]Man(b1-4)GlcNAc(b1-4)[Fuc(a1-6)]GlcNAc
Outline: as §1

[9] = target: Gal(b1-4)GlcNAc(b1-3)Gal(b1-4)GlcNAc(b1-2)[Gal(b1-4)GlcNAc(b1-3)Gal(b1-4)GlcNAc(b1-6)]Man(a1-6)[Gal(b1-4)GlcNAc(b1-3)Gal(b1-4)GlcNAc(b1-2)Man(a1-3)]Man(b1-4)GlcNAc(b1-4)GlcNAc
Outline: as §1

[10] = target: Gal(b1-4)GlcNAc(b1-3)Gal(b1-4)GlcNAc(b1-2)[Gal(b1-4)GlcNAc(b1-3)Gal(b1-4)GlcNAc(b1-6)]Man(a1-6)[Gal(b1-4)GlcNAc(b1-3)Gal(b1-4)GlcNAc(b1-2)Man(a1-3)]Man(b1-4)GlcNAc(b1-4)[Fuc(a1-6)]GlcNAc
Outline: as §1

[11] = target: Gal(b1-4)GlcNAc(b1-3)Gal(b1-4)GlcNAc(b1-3)Gal(b1-4)GlcNAc
Outline: as §1

[12] = target: Gal(b1-4)GlcNAc(b1-3)Gal(b1-4)GlcNAc(b1-3)Gal(b1-4)GlcNAc(b1-2)Man(a1-3)[Gal(b1-4)GlcNAc(b1-3)Gal(b1-4)GlcNAc(b1-3)Gal(b1-4)GlcNAc(b1-2)Man(a1-6)]Man(b1-4)GlcNAc(b1-4)GlcNAc
Outline: as §1

[13] = target: Gal(b1-4)GlcNAc(b1-3)Gal(b1-4)GlcNAc(b1-3)Gal(b1-4)GlcNAc(b1-2)Man(a1-3)[Gal(b1-4)GlcNAc(b1-3)Gal(b1-4)GlcNAc(b1-3)Gal(b1-4)GlcNAc(b1-2)Man(a1-6)]Man(b1-4)GlcNAc(b1-4)[Fuc(a1-6)]GlcNAc
Outline: as §1

[14] = target: Gal(b1-4)GlcNAc(b1-3)Gal(b1-4)GlcNAc(b1-3)Gal(b1-4)GlcNAc(b1-2)[Gal(b1-4)GlcNAc(b1-3)Gal(b1-4)GlcNAc(b1-3)Gal(b1-4)GlcNAc(b1-6)]Man(a1-6)[Gal(b1-4)GlcNAc(b1-3)Gal(b1-4)GlcNAc(b1-3)Gal(b1-4)GlcNAc(b1-2)Man(a1-3)]Man(b1-4)GlcNAc(b1-4)[Fuc(a1-6)]GlcNAc
Outline: as §1

[15] = target: Gal(b1-4)GlcNAc(b1-3)Gal(b1-4)GlcNAc(b1-3)Gal(b1-4)GlcNAc(b1-3)Gal(b1-4)GlcNAc(b1-2)Man(a1-3)[Gal(b1-4)GlcNAc(b1-3)Gal(b1-4)GlcNAc(b1-3)Gal(b1-4)GlcNAc(b1-3)Gal(b1-4)GlcNAc(b1-2)Man(a1-6)]Man(b1-4)GlcNAc(b1-4)GlcNAc
Outline: as §1

[16] = target: Gal(b1-4)GlcNAc(b1-3)Gal(b1-4)GlcNAc(b1-3)Gal(b1-4)GlcNAc(b1-3)Gal(b1-4)GlcNAc(b1-2)Man(a1-3)[Gal(b1-4)GlcNAc(b1-3)Gal(b1-4)GlcNAc(b1-3)Gal(b1-4)GlcNAc(b1-3)Gal(b1-4)GlcNAc(b1-2)Man(a1-6)]Man(b1-4)GlcNAc(b1-4)[Fuc(a1-6)]GlcNAc
Outline: as §1

[17] = target: Gal(b1-4)GlcNAc(b1-3)Gal(b1-4)GlcNAc(b1-3)Gal(b1-4)GlcNAc(b1-3)Gal(b1-4)GlcNAc(b1-2)[Gal(b1-4)GlcNAc(b1-3)Gal(b1-4)GlcNAc(b1-3)Gal(b1-4)GlcNAc(b1-3)Gal(b1-4)GlcNAc(b1-6)]Man(a1-6)[Gal(b1-4)GlcNAc(b1-3)Gal(b1-4)GlcNAc(b1-3)Gal(b1-4)GlcNAc(b1-3)Gal(b1-4)GlcNAc(b1-2)Man(a1-3)]Man(b1-4)GlcNAc(b1-4)[Fuc(a1-6)]GlcNAc
Outline: as §1

[18] = target: Gal(b1-4)GlcNAc(b1-3)Gal(b1-4)GlcNAc(b1-3)Gal(b1-4)GlcNAc(b1-3)Gal(b1-4)GlcNAc(b1-3)Gal(b1-4)GlcNAc(b1-2)Man(a1-3)[Gal(b1-4)GlcNAc(b1-3)Gal(b1-4)GlcNAc(b1-3)Gal(b1-4)GlcNAc(b1-3)Gal(b1-4)GlcNAc(b1-3)Gal(b1-4)GlcNAc(b1-2)Man(a1-6)]Man(b1-4)GlcNAc(b1-4)GlcNAc
Outline: as §1

[19] = target: Gal(b1-4)GlcNAc(b1-3)Gal(b1-4)GlcNAc(b1-3)Gal(b1-4)GlcNAc(b1-3)Gal(b1-4)GlcNAc(b1-3)Gal(b1-4)GlcNAc(b1-2)Man(a1-3)[Gal(b1-4)GlcNAc(b1-3)Gal(b1-4)GlcNAc(b1-3)Gal(b1-4)GlcNAc(b1-3)Gal(b1-4)GlcNAc(b1-3)Gal(b1-4)GlcNAc(b1-2)Man(a1-6)]Man(b1-4)GlcNAc(b1-4)[Fuc(a1-6)]GlcNAc
Outline: as §1

[20] = target: Gal(b1-4)GlcNAc(b1-3)Gal(b1-4)GlcNAc(b1-3)Gal(b1-4)GlcNAc(b1-3)Gal(b1-4)GlcNAc(b1-3)Gal(b1-4)GlcNAc(b1-2)[Gal(b1-4)GlcNAc(b1-3)Gal(b1-4)GlcNAc(b1-3)Gal(b1-4)GlcNAc(b1-3)Gal(b1-4)GlcNAc(b1-3)Gal(b1-4)GlcNAc(b1-6)]Man(a1-6)[Gal(b1-4)GlcNAc(b1-3)Gal(b1-4)GlcNAc(b1-3)Gal(b1-4)GlcNAc(b1-3)Gal(b1-4)GlcNAc(b1-3)Gal(b1-4)GlcNAc(b1-2)Man(a1-3)]Man(b1-4)GlcNAc(b1-4)[Fuc(a1-6)]GlcNAc
Outline: as §1

[21] = target: Gal(b1-4)GlcNAc(b1-3)Gal(b1-4)GlcNAc(b1-3)Gal(b1-4)GlcNAc(b1-3)Gal(b1-4)GlcNAc(b1-3)Gal(b1-4)GlcNAc(b1-3)Gal(b1-4)GlcNAc(b1-2)Man(a1-3)[Gal(b1-4)GlcNAc(b1-3)Gal(b1-4)GlcNAc(b1-3)Gal(b1-4)GlcNAc(b1-3)Gal(b1-4)GlcNAc(b1-3)Gal(b1-4)GlcNAc(b1-3)Gal(b1-4)GlcNAc(b1-2)Man(a1-6)]Man(b1-4)GlcNAc(b1-4)GlcNAc
Outline: as §1

[22] = target: Gal(b1-4)GlcNAc(b1-3)Gal(b1-4)GlcNAc(b1-3)GalNAc
Outline: as §1

[23] = target: Gal(b1-4)GlcNAc(b1-3)Gal(b1-4)GlcNAc(b1-3)[Gal(b1-4)GlcNAc(b1-3)Gal(b1-4)GlcNAc(b1-6)]GalNAc
Outline: as §1

B1: GNL (Galanthus nivalis) (protein)
chain: MGHHHHHHHHYGTLENGHWLMVGMSIFSKDRTVELRMQDDGKLAIYYNDHCAWQSTAQQVNNAKGAVMQGDGNFCIYDKNGKATWHTNTAAPSGDSHTFVSVQDDGNLVLYKNNGATPIWSSKSNK
glycan array binding signal (z-score) [1]: -0.29 | glycan array binding signal (z-score) [2]: -0.194 | glycan array binding signal (z-score) [3]: -0.183 | glycan array binding signal (z-score) [4]: -0.261 | glycan array binding signal (z-score) [5]: -0.197 | glycan array binding signal (z-score) [6]: -0.201 | glycan array binding signal (z-score) [7]: 0.418 | glycan array binding signal (z-score) [8]: 1.33 | glycan array binding signal (z-score) [9]: -0.146 | glycan array binding signal (z-score) [10]: -0.241 | glycan array binding signal (z-score) [11]: -0.242 | glycan array binding signal (z-score) [12]: 0.206 | glycan array binding signal (z-score) [13]: 0.811 | glycan array binding signal (z-score) [14]: -0.2 | glycan array binding signal (z-score) [15]: 0.086 | glycan array binding signal (z-score) [16]: 0.206 | glycan array binding signal (z-score) [17]: -0.059 | glycan array binding signal (z-score) [18]: 0.054 | glycan array binding signal (z-score) [19]: 0.088 | glycan array binding signal (z-score) [20]: -0.148 | glycan array binding signal (z-score) [21]: 0.001 | glycan array binding signal (z-score) [22]: -0.23 | glycan array binding signal (z-score) [23]: -0.222
